In PubChem BioAssay AID1159614 (National Center for Advancing Translational Sciences (NCATS), 2016):
Among all 45,000 compounds or so, about 65 (0.1%) were called active. Calls follow the shape of the dose curve; as a rule, active = well fitted activation curve with a large enough effect; inconclusive = small, poorly fitted or top-dose-only effect; inactive = no such curve, though single readings can be large or run the other way. The list shows a part of the results.

target: Galactocerebrosidase (Homo sapiens) (UniProt P54803); assay: A Novel Cell-Based Assay to Identify Small Molecules for B -Galactocerebrosidase; details: 145M-Twi-hGALC-G270D cells (Twitcher mouse brain line with human GALC G270D), HMU-beta-Gal fluorescence, 48 h; series mostly up to 57.5 µM; activation: at the top concentration; also: 0% is about no effect; nearly all actives have a fitted effect of over 65% in size
UniProt P54803, sequence (P54803 whole entry, looked up): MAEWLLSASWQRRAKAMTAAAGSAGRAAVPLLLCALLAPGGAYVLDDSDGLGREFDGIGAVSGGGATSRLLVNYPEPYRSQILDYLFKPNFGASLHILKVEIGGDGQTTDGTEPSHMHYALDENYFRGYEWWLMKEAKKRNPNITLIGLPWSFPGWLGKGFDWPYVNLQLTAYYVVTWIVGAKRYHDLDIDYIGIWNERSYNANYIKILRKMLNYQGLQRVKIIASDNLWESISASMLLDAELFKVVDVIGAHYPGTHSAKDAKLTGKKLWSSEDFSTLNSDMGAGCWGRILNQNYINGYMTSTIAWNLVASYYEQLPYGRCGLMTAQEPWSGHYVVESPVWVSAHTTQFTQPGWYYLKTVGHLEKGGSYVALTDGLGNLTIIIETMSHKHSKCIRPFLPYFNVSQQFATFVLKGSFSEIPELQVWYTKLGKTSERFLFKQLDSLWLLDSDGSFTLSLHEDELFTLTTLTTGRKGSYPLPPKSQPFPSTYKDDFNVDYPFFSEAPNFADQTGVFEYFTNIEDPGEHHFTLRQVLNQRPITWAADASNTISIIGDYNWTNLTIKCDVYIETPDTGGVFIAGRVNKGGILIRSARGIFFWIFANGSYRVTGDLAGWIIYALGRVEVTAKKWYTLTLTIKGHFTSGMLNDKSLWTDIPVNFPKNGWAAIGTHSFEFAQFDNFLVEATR
Summary of the method: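 Live 145M-Twi cells (Twitcher mouse brain-derived, GALC-null) stably expressing human GALC-G270D, with a wild-type GALC line, were compound-treated. Residual GALC activity was then read as fluorescence from 0.1 mM final HMU-β-gal at pH 5.2; higher signal means activation.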

| SMILES | activation |
| --- | --- |
| Cc1c2cnn(-c3ccccc3)c(=O)c2c(C)n1CC(=O)NCc1ccccc1 | inactive: -7.43% |
| Cc1cccc(-n2c(SCC(=O)c3ccccc3)nnc2-c2ccc(Br)cc2)c1 | inactive: -7.59% |
| Cc1ccc(Cl)cc1NS(=O)(=O)c1cc2c3c(c1)CC(=O)N3CCC2 | inactive: -20.3% |
| COc1cccc(CNC(=O)c2ccc(NC(=O)N3CC(C)Sc4ccccc43)cc2)c1 (stereo not given) | inactive: -12.1% |
| Cc1ccccc1Nc1c(-c2ccncc2)nc2ccc(Cl)cn12 | inactive: -8.86% |
| CC(CNC(=O)CCCn1c(=O)c2cccn2c2cccnc21)c1ccccc1 (stereo not given) | inactive: -0.915% |
| O=C(c1ccc(CS(=O)c2ccccc2Cl)o1)N1CCN(c2cccc(Cl)c2)CC1 (stereo not given) | inactive: -11.7% |
| COC(=O)c1ccc(O)cc1 | inactive: -14.1% |
| O=C(CSc1cn(CC(=O)N2CCCC2)c2ccccc12)Nc1cc(C(F)(F)F)ccc1Cl | inactive: -12.7% |
| CCC1CN(C(=O)Nc2ccc(C(=O)O)cc2)c2cc(Cl)ccc2O1 (stereo not given) | inactive: -4.32% |
| Cc1ccc2nc(Cl)c3cc(C(=O)NC4CCCCCC4)sc3c2c1 | inactive: 4.73% |
| COc1cc(NC(=O)c2ccc(NC(=O)N3CCSc4ncccc43)cc2)cc(OC)c1 | inactive: -1.92% |
| COc1ccc(CCNC(=O)c2ccc(CNS(=O)(=O)c3ccccc3)cc2)cc1OC | inactive: -6.79% |
| CCOc1cccc2sc(N(CCN(CC)CC)C(=O)c3ccco3)nc12 | inactive: 4.81% |
| Cc1cccc(CCNC(=O)C2CCCN(S(=O)(=O)c3ccc4c(c3)oc(=O)n4C)C2)c1 (stereo not given) | inactive: -12.7% |
| CC(C)(C)OC(=O)N1CCC(c2c(C(=O)N3CCN(C(=O)c4ccco4)CC3)cnn2-c2ccccc2)CC1 | inactive: -7.76% |
| CN(Cc1ccccc1)C(=O)c1cn(C)c2ccc(S(=O)(=O)N(C)C3CCCCC3)cc2c1=O | inactive: -11.9% |
| CCCS(=O)(=O)c1nc(S(=O)(=O)c2ccc(C)cc2)c(NCc2ccccc2)s1 | inactive: -0.753% |
| COc1cc(NC(=O)c2c(C)oc3ncnc(N4CCCCC4)c23)cc(OC)c1 | inactive: 4.7% |
| CCOc1ccc(NC(=O)CCS(=O)(=O)c2ccc(Br)cc2)cc1 | inactive: -3.03% |
| Cc1cc(Br)ccc1NC(=O)C1CCN(S(=O)(=O)c2ccc(Br)s2)CC1 | inactive: -6.93% |
| COc1ccc(/C=C(/C#N)c2nc(-c3ccc(Br)cc3)cs2)cc1 | inactive: 13.8% |
| CCOC(=O)c1ccc(N2C(=O)c3n[nH]c(-c4cccs4)c3C2c2ccc(Cl)cc2Cl)cc1 (stereo not given) | inactive: -16.9% |
| CCC(=O)N1CCc2cc(S(=O)(=O)CCC(=O)NCc3cccc(OC)c3)ccc21 | inactive: -7.06% |

| SMILES | activation |
| --- | --- |
| Cc1cccc(Cn2c(SCc3ccc(C(=O)NC4CCCCC4)cc3)nc3ccncc32)c1 | inactive: -4.13% |
| COc1ccc(NC(=O)c2c(C)oc3ccc(O)c(CN4CCN(Cc5ccccc5)CC4)c23)cc1 | inactive: -13.5% |
| Cc1ccc(OC(=O)CSc2nnc(CNC(=O)c3ccccc3)o2)cc1 | inactive: -19.3% |
| CC(=O)N1CCCc2cc(S(=O)(=O)N3CCCC(C(=O)N4CCN(c5cc(C)ccc5C)CC4)C3)ccc21 (stereo not given) | inactive: 4.42% |
| CCc1ccc(C2=NN(CCC(=O)NCCc3ccc(Cl)cc3)C(=O)CC2)cc1 | inactive: -18.2% |
| Cc1ccc(C(=O)COC(=O)CCC(=O)Nc2ccc(Oc3cc(C)ccc3C(C)C)cc2)cc1 | inactive: -7.19% |
| Cc1ccc2c(c1)-c1c(cnn1CC(=O)Nc1ccccc1C#N)CO2 | inactive: -5.88% |
| Cc1c(C(=O)NCCN(C)C)sc2nc3n(c(=O)c12)CCC3 | inactive: -12.8% |
| CCOC(=O)c1nnc2c(-c3ccc(Cl)cc3)c(C)nn2c1C | inactive: 1.32% |
| C[C@@H]1C[C@H]2[C@@H]3C[C@H](F)C4=CC(=O)C(Cl)=C[C@]4(C)[C@@]3(F)[C@@H](O)C[C@]2(C)[C@@]1(O)C(=O)CO | inactive: -10.2% |
| O=C(NCC(c1ccccc1)c1ccccc1)c1nn(-c2ccccc2F)nc1CO | inactive: -9.49% |
| CCCn1c2ccccc2c2cnn(CC(=O)NC(CCSC)C(=O)OC)c(=O)c21 (stereo not given) | inactive: -10.5% |
| Cc1ccc(CCNC(=O)CCSCc2ccccc2Cl)cc1 | inactive: 6.7% |
| CCCN(CCC)C(=O)c1cc2c(=O)n3cccc(C)c3nc2n1C | inactive: -2.16% |
| Cc1ccc(NC(=O)c2nc(S(C)(=O)=O)ncc2N(Cc2ccco2)Cc2ccco2)cc1C | inactive: -25.8% |
| CN(Cc1ccco1)S(=O)(=O)c1nnc(NC(=O)c2cccc(Cl)c2)s1 | inactive: -28.1% |
| CC(C)C(NS(=O)(=O)c1ccc2c(c1)oc(=O)n2C)C(=O)NCCc1ccc(Cl)cc1 (stereo not given) | inactive: -12.9% |
| CCOc1ccc(Nc2c(S(=O)(=O)c3ccccc3)cnc3ccccc23)cc1 | inactive: -11.4% |
| Cc1ccc(NC(=O)Cn2c(=O)oc3cc(S(=O)(=O)N4CCCCCC4)ccc32)cc1Cl | inactive: -13.3% |
| Cc1ccc2cccc(NC(=O)c3ccc(-c4cccc(Cl)c4)o3)c2n1 | inactive: -23% |
| COCCNC(=O)CSc1nc(-c2ccccc2C)nc2c1c(=O)n(C)c(=O)n2C | inactive: -6.14% |
| COc1ccc(CCC(=O)NCCc2csc(-c3ccc(Cl)cc3)n2)cc1 | inactive: -14.3% |
| NS(=O)(=O)c1ccc2nc(NC(=O)COc3ccccc3)sc2c1 | inactive: -4.69% |
| Cc1ccc(-c2nnc(Nc3ccc(S(N)(=O)=O)cc3)c3ccccc23)cc1S(=O)(=O)N1CCCCC1 | inactive: -13.7% |

| SMILES | activation |
| --- | --- |
| CN(C)c1ccc(C(CNC(=O)c2c(F)cccc2Cl)N2CCOCC2)cc1 (stereo not given) | inactive: -9.65% |
| CC(C)(Oc1ccc(Cl)cc1)C(=O)Nc1nc2ccc(S(C)(=O)=O)cc2s1 | inactive: -13% |
| CCOCCCNC(=O)C(c1ccc(Cl)cc1)N(Cc1cccs1)C(=O)c1ccc(NC(C)=O)cc1 (stereo not given) | inactive: 0.0856% |
| Cc1ccc(NC(=O)CN2C(=O)C3(SCC(=O)N3c3ccc(F)c(F)c3)c3ccccc32)c(C)c1 (stereo not given) | inactive: -21.4% |
| CCC(=O)N1CCc2cc(Br)cc(S(=O)(=O)CCC(=O)N(CC)Cc3ccccc3)c21 | inactive: -7.25% |
| CCOc1ccc(OCC)c(NS(=O)(=O)c2cc(-c3onc(C)c3C)ccc2OC)c1 | inactive: -8.83% |
| CN1C(=O)C2(SCC(=O)N2c2ccc(F)cc2)c2ccccc21 (stereo not given) | inactive: -22.7% |
| COc1cc(OC)cc(C(=O)Nc2ccc3oc(-c4cccc5c(Br)cccc45)nc3c2)c1 | inactive: -4.87% |
| CC(=O)N1CCc2cc(CNS(=O)(=O)c3ccc(Cl)s3)ccc21 | inactive: -9.12% |
| COc1ccc(-n2c(=O)c3c4c(sc3n3c(SCCC(C)C)nnc23)COC(C(C)C)C4)cc1 (stereo not given) | inactive: -18.1% |
| COc1ccc(Cl)cc1NC(=O)NCC1CCN(Cc2ccccc2F)CC1 | inactive: -6.42% |
| COc1ccc(N2CCN(C(=O)c3cc(S(=O)(=O)N4CCC(C)CC4)cn3C)CC2)cc1 | inactive: 0.54% |
| CCN1CCN(CCCNC(=O)c2ccc3nc(Cc4ccccc4)oc3c2)CC1 | inactive: -12.9% |
| O=C(c1ccc(F)cc1)n1nc(-c2ccccc2)nc1NCc1ccco1 | inactive: -15.4% |
| O=C(NC1CCCCC1)c1ccc2c(c1)N(Cc1ccc(Cl)cc1)C(=O)c1ccccc1S2=O (stereo not given) | inactive: -8.4% |
| CCn1cc(C(=O)NCCc2ccc(Cl)cc2)c(=O)c2cc(S(=O)(=O)N3CCC(C)CC3)ccc21 | inactive: -13.1% |
| CCOc1ccccc1N(CC)C(=O)c1noc2c1COc1ccc(C)cc1-2 | inactive: -7.89% |
| COc1ccc(N(CC(=O)N2CCN(c3ccccc3F)CC2)S(=O)(=O)c2c(C)n[nH]c2C)cc1 | inactive: 0.488% |
| Cc1cccc(NC(=O)CCNS(=O)(=O)c2cccc3nsnc23)c1C | inactive: 2.08% |
| CCN(C(=O)C1CCN(c2ncnc3c2nc2n3CCCCC2)CC1)c1cccc(Cl)c1 | inactive: -7.92% |
| COc1ccc(-n2ccnc(NCc3ccc(C)cc3)c2=O)cc1OC | inactive: -10.4% |
| O=C(NCC(c1ccc2c(c1)OCO2)N1CCOCC1)c1c(F)cccc1F (stereo not given) | inactive: -13.2% |
| Cc1cccc(N2CCN(c3nc4ccc(C)cc4n4cnnc34)CC2C)c1 (stereo not given) | inactive: -15% |
| CCn1c(C)c(C)c2cc(C(=O)NCc3cccc(C)c3)ccc21 | inactive: -5.7% |

| SMILES | activation |
| --- | --- |
| Cc1cccc(C(=O)Nc2ccc(C(=O)OCc3cc(=O)n4nc(CC(C)C)sc4n3)cc2)c1 | inactive: -21.9% |
| O=C(c1ccccc1)N(Cc1ccco1)Cc1cccs1 | inactive: -16% |
| COc1ccc(NC(=O)/C=C\C(=O)N(c2ccc(C(C)C)cc2)C(C(=O)NCc2ccco2)c2ccc(F)cc2)cc1 (stereo not given) | inactive: -8.78% |
| Cc1ccc(C)c(Cn2c(=O)cc(C)c3c(C)nn(C)c32)c1 | inactive: -6.97% |
| COc1ccccc1NC(=O)c1sc2nc(C)c(C(=O)Nc3ccc(C)cc3C)c(-c3ccc(C)o3)c2c1N | inactive: -13.4% |
| Cc1ccc(-n2ncc3c(N4CCN(C)CC4)ncnc32)cc1C | inactive: -17.1% |
| COc1cccc(CNC(=O)CCc2c(C)c3cc4c(C)coc4c(C)c3oc2=O)c1 | inactive: -13.4% |
| CCc1ccccc1NC(=O)CCS(=O)(=O)c1cccc2nonc12 | inactive: -11.6% |
| COc1ccc(OCC(=O)N2CCN(C(=O)c3cccc(OC)c3)CC2)cc1 | inactive: -6.39% |
| O=C(CSc1nc(-c2ccc(F)cc2)cc(C(F)(F)F)n1)NCCc1ccccc1 | inactive: -1.6% |
| COc1ccc(OC)c(C2NC(=O)NC(C)=C2C(=O)Nc2ccc(F)cc2)c1 (stereo not given) | inactive: -4.85% |
| O=C(CSc1cn(CC(=O)N2CCCCC2)c2ccccc12)Nc1ccc(C(F)(F)F)cc1 | inactive: -10.7% |
| COc1cccc(N2CCN(S(=O)(=O)c3ccc(-c4ccno4)cc3OC)CC2)c1 | inactive: -7.69% |
| Cc1ccc(NC(=O)CSc2nc(-c3ccccc3Cl)nc3cc(=O)[nH]n23)c(C)c1 | inactive: -29.1% |
| Cc1ccc(C(c2sc3nc(-c4ccco4)nn3c2O)N2CCC3(CC2)OCCO3)cc1 (stereo not given) | inactive: -3.94% |
| COC(=O)c1c(C)nn(-c2ccc(F)cc2)c1-n1cccc1 | inactive: -11.8% |
| CCc1cccc(Nc2ncnc3onc(-c4ccc(F)cc4)c23)c1 | inactive: -18.7% |
| Cc1ccc(C(=O)NCc2ccc(F)cc2)cc1NC(=O)c1nsc2ccccc12 | inactive: -15.6% |
| CCN(CC)CCNC(=O)c1sc2ncccc2c1-n1cccc1 | inactive: -19% |
| COc1cccc(N2CCN(C(=O)c3ccc(NC(=O)c4nsc5ccccc45)cc3)CC2)c1 | inactive: -9.12% |
| O=C(NCC(O)CO)c1c(I)c(C(=O)NCC(O)CO)c(I)c(N(CCO)C(=O)CO)c1I (stereo not given) | inactive: -20.8% |
| COc1ccc(NC(=O)c2ccco2)cc1NC(=O)COc1ccc(Cl)cc1C | inactive: -1.42% |
| O=C(Nc1ccc2nc(SCC(=O)N3CCc4ccccc43)sc2c1)c1ccccc1F | inactive: -12.5% |
